# Experimental data: PubChem BioAssay AID434955 (Southern Research Specialized Biocontainment Screening …, 2010)
# “And” between values parts separate entries of the source, which are not always exact repeats. Identical values can stand only once. The list shows a part of the results. These are further read-outs of the screen, such as a control signal, another cell line or another target. No call is given for them. Most of these compounds were active or inconclusive in the main read-out, so they are no random draw.
# Experiment: beta-lactam sensitization of Mtb H37Rv, H37Rv (AID 434955);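 note: growth measured after seven days incubation then overnight dye step; 0% = bacteria only wells and 100% = bacteria with antibiotic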
# Settings: M. tuberculosis H37Rv growth with meropenem, percent inhibition; measured here: primary screen without meropenem; at 25 µM
row,Structure (SMILES),inhibition
1,CC(CC(=O)NCc1ccco1)S(=O)(=O)c1ccc2c(c1)CCN2C(=O)C1CC1 (stereo not drawn),-0.39%
2,CC(C)(C)c1ccc(C(=O)NCc2nnc(SCC(=O)NC3CCCC3)o2)cc1,2.49%
3,O=C(CCCCCn1c(=S)[nH]c2ccc(N3CCOCC3)cc2c1=O)NCCc1ccccc1,7.67%
4,CC1CCCN(S(=O)(=O)c2ccc(C(=O)Nc3nnc(C4=COCCO4)o3)cc2)C1 (stereo not drawn),66.3%
5,CCCCNC(=S)N/N=C/C1=CCC2CC1C2(C)C (stereo not drawn),2.51%
6,O=C(CN1C(=O)c2cccnc2Oc2ccc(Cl)cc21)NC1CCCC1,-2.27%
7,Cc1cc(=O)[nH]c(N/N=C/c2c(F)c(F)c(F)c(F)c2F)n1,32.9%
8,CCNc1nc(NCC)nc(N(C)N)n1,-0.8%
9,CSCCC(NS(=O)(=O)c1cccs1)C(=O)NCc1ccc(C)cc1 (stereo not drawn),7.49%
10,O=C(CSc1nnc(CNC(=O)c2ccc(F)cc2)o1)Nc1ccc2c(c1)OCCO2,-4.28%
11,O=C(NC(=S)Nc1cccc(Cl)c1N1CCCC1)c1ccc(-c2cccc([N+](=O)[O-])c2)o1,4.55%
12,CCOC(=O)C1CCN(C(=O)CN2C(=O)c3cccnc3Oc3ccc(C)cc32)CC1,4.09%
13,COC(=O)Cn1c(=O)c2c(nc(Br)n2CC(=O)OC)n(C)c1=O,-11.7%
14,COCc1cc(=O)n2[nH]cc(-c3ccccc3)c2n1,29.8%
15,COc1ccc(C2=NOC(C(=O)NCc3ccco3)C2)cc1 (stereo not drawn),-1.85%
16,CCn1c(SCC(=O)N2CCc3ccccc3C2)nc2c1c(=O)n(C)c(=O)n2C,7.11%
17,Clc1ccccc1Nc1nc(-c2ccncc2)nc2ccccc12,67.1%
18,COc1ccc(C(=O)CSc2nnc(CNC(=O)c3ccccc3)o2)cc1,7.71%
19,CCc1cccc(NC(=O)CN(c2ccc(OC)cc2)S(=O)(=O)c2c(C)n[nH]c2C)c1,-14%
20,CCc1nn(C(CC)C(=O)NCCCN2CC(C)CC(C)C2)c(=O)c2cc3oc(C)cc3n12 (stereo not drawn),2.56%
21,CCOC(=O)c1c(C)[nH]c(N=Nc2ccccc2Cl)c1C,45.4%
22,CC1CCCCC1NS(=O)(=O)c1ccc(S(=O)(=O)NCc2ccncc2)cc1 (stereo not drawn),-2.56%
23,COc1cc(NC(=O)c2ccccc2Cl)ccc1NC(=O)c1ccco1,24.5%
24,COC(=O)[C@H]1Cc2c([nH]c3ccccc23)[C@H](c2ccccc2)N1,30.5%
25,CCOc1ccc(CCNC(=O)COC(=O)c2ccc(C)c([N+](=O)[O-])c2)cc1OCC,-2.24%
26,CC(C)N1CCC(n2nccc2NC(=O)c2ccc3c(c2)OCO3)CC1,-12.2%

row,Structure (SMILES),inhibition
1,CCCC(=O)N(Cc1cc(=O)[nH]c2ccccc12)c1cccc(C)c1,-2.64%
2,CCOc1ccccc1NC(=O)CC1NCCNC1=O (stereo not drawn),-2.67%
3,Cc1c(Cl)ccc2c(C(=O)Nc3cc(C(C)(C)C)on3)cc(-c3ccccn3)nc12,8.96%
4,CCCC(NC(=O)c1ccco1)c1nc2ccccc2[nH]1 (stereo not drawn),7.5%
5,CCOC(=O)c1oc2ccccc2c1NC(=O)c1ccco1,10.3%
6,CCC(=O)N1CCN(c2ccc(NC(=S)NC(=O)c3ccc(OC)c([N+](=O)[O-])c3)cc2)CC1,31.7%
7,COc1cccc(C(=O)N(CN2CCCC2=O)c2cccc(Cl)c2)c1OC,5.41%
8,CCOC(=O)C1CCN(C(=O)CNS(=O)(=O)c2cccs2)CC1,1.37%
9,O=C(O)CCCN1C(=O)/C(=C\c2ccc(-c3nc4ccccc4s3)o2)SC1=S,7.32%
10,COc1ccccc1NC(=O)/C(C#N)=C/c1ccc(OCCN2CCOCC2)c(OC)c1,1.02%
11,Cc1ccc(C(=O)N2CCNC(=O)C2CC(=O)Nc2ccc(F)cc2)cc1C (stereo not drawn),-1.03%
12,CC1=C(C(=O)O)N2C(=O)C(NC(=O)c3ccccc3Cl)C2SC1 (stereo not drawn),-7.44%
13,CCCCNC(=O)CCCCCNS(=O)(=O)c1ccc(OC)cc1,3.12%
14,CC(=O)c1ccc(-n2c(C)ccc2-c2ccccc2)cc1,18.7%
15,Cc1ccccc1C1CC(c2ccc(F)cc2)Nc2nc(N)nn21 (stereo not drawn),-4%
16,COc1ccc(N=C2S/C(=C\c3ccc(N4CCOCC4)o3)C(=O)N2CCc2c[nH]c3ccccc23)cc1,47.2%
17,Oc1cccc(/C=N/n2c(C3CCCCC3)n[nH]c2=S)c1,-1.37%
18,Cc1nc(SCC(=O)c2cc3ccccc3oc2=O)c(C#N)c(-c2ccccc2)c1C(=O)Nc1ccccc1,17.1%
19,COC(=O)[C@H](C)NC(=O)NCc1ccco1,5.32%
20,CCCCNC(=O)c1onc(CSc2ccccc2C)c1C(=O)O,17.6%
21,COc1cc(C(=S)N2CCCC2)cc(Cl)c1OCC(=O)Nc1ccc(C)cc1C,-2.24%
22,CCC(C)(C(=O)NC1CCCCC1)N(Cc1cccs1)C(=O)Cc1cccs1 (stereo not drawn),-2.2%
23,Cc1cnc(C(=O)OCC(=O)Nc2oc(-c3ccccc3)c(-c3ccccc3)c2C#N)cn1,1.05%
24,COc1ccc(C)cc1S(=O)(=O)N1CCN(S(=O)(=O)c2cc(C)ccc2OC)CC1,-1.65%
25,C=CCN(CC=C)C(=S)Nc1ccccc1,0.43%
26,Cc1ccc(C(=O)Nc2nc3ccccc3s2)s1,22.4%

row,Structure (SMILES),inhibition
1,Cc1ccc(C(=O)COC(=O)CCN2C(=O)C3C4CCC(C4)C3C2=O)cc1C (stereo not drawn),15.8%
2,CCOc1ccc(/C=N/NC(=O)c2ccccc2O)cc1CN1CC2CC(C1)c1cccc(=O)n1C2 (stereo not drawn),70.5%
3,CC(C)CC(=O)N1CCN(c2ccc([N+](=O)[O-])c(NCc3ccccc3)c2)CC1,19.6%
4,Cc1cccc(NC(=O)c2ccc(N3C(=O)C4C5C=CC(C6CC56)C4C3=O)cc2)c1 (stereo not drawn),4.24%
5,CCN(Cc1ccccc1)C(=O)COc1cc(=O)n(CC)c2ccccc12,-6.03%
6,COc1cc2c(cc1OC)C(C(=O)N1CCOCC1)C(c1cccs1)N(C)C2=O (stereo not drawn),-9.46%
7,Cc1cc(C(=O)N2CCN(C(c3ccccc3)c3ccccc3)CC2)no1,-3.43%
8,CO/N=C(\C(=O)N[C@@H]1C(=O)N2C(C(=O)O)=C(COC(C)=O)CS[C@H]12)c1csc(N)n1 (stereo in doubt),-8.39% and -10.7% and -2.57%
9,Cc1ccc(-n2c(SCC(=O)OC(C)C)nnc2-c2ccco2)cc1,42.9%
10,CCC1Nc2ncnc(N3CCN(c4ccccc4)CC3)c2N(Cc2ccc(Br)cc2)C1=O (stereo not drawn),12.5%
11,COc1ccc(Cl)cc1NC(=O)NNC(=O)c1ccccn1,11.5%
12,O=C(NCc1ccccc1)C1CCN(C(=O)Cc2ccccc2)CC1,3.29%
13,COc1ccc(Cl)cc1NC(=O)C/C(C)=N/NC(=O)CC#N,27.3%
14,CCOC(=O)c1cc(-c2ccc(C)cc2)n(CCC(=O)N2CCN(c3ccccn3)CC2)c1C,46.6%
15,O=C(Nc1nc(-c2ccc(F)c(F)c2)cs1)c1cnccn1,-0.42%
16,Cc1ccccc1Nc1nnc(SCC(=O)NC(=O)Nc2ccc3c(c2)OCCO3)s1,31.3%
17,O=C1CC(SC(=Nc2ccccc2)Nc2ccccc2)C(=O)N1c1ccc(Cl)c(Cl)c1 (stereo not drawn),-1.11%
18,O=C1C=C(N2CCN(C3=CC(=O)CCC3)CC2)CCC1,0.43%
19,COC(=O)CSc1nnc(-c2cccnc2)o1,-7.67%
20,CC(C)N=C(NS(=O)(=O)c1cccs1)c1ccccc1,1.88%
21,N#Cc1ccc(COC(=O)CCc2c[nH]c3ccccc23)cc1,94.1%
22,Cn1cccc1/C=C1/C(=O)NC(=O)N(Cc2ccc(F)cc2)C1=O,11.8%
23,CCN(CC)C(=O)c1ccc(NC(=S)NC(=O)CCc2ccccc2)cc1,85.9%
24,O=S(=O)(c1ccc(-c2cn3ccccc3n2)cc1)N1CCOCC1,-6.21%
25,CC(C)N1CCc2c(sc(NC(=O)c3cc(-c4cccs4)nc4ccccc34)c2C(N)=O)C1,32.2%
26,COc1ccc2cc(C3=CCCCC3)ncc2c1,27.6%

row,Structure (SMILES),inhibition
1,Cc1onc(-c2ccccc2Cl)c1C(=O)Nc1ccc(-c2cn3cccnc3n2)cc1,-4.7%
2,O=C(NCc1cccc(Cl)c1)c1cnccn1,-2.82%
3,Cc1ccc(C)n1-c1nnc(N2CCC(C(=O)N3CCN(C)CC3)CC2)s1,-8.85%
4,COc1cccc(C(=O)Nc2ccc3c(cc2=O)[C@@H](NC(C)=O)CCc2cc(OC)c(OC)c(OC)c2-3)c1,39%
5,COc1ccc(CC(=O)NNC(=O)c2cc(C)[nH]n2)cc1,-0.79%
6,CC(=O)Nc1ccc(S(=O)(=O)N2CCN=C2SCc2cccc(C)c2)cc1,5.97%
7,Cc1ccc2nc(NC(=O)C3CCN(c4ncnc5sc(C)c(C)c45)CC3)sc2c1,6.48%
8,COc1ccc(-c2cc(C(=O)N3CCN(S(=O)(=O)c4ccccc4)CC3)[nH]n2)cc1,-9.05%
9,CCCCn1c(SCC(=O)Nc2cc(C)on2)nnc1-c1cccnc1,-2.44%
10,CC(=O)c1ccc(OCCCC(=O)N2CCN(S(=O)(=O)c3cccs3)CC2)cc1,6.75%
11,Cc1ccnc(-n2c(C)cc(/C=C3\C(=O)NC(=S)N(C)C3=O)c2C)c1,-14.2%
12,CCOC(=O)c1cc(-c2ccccc2)nc2ccc(C)cc12,44.3%
13,CCOC(=O)C1CCN(c2cc(C)nc3cc(-c4cccc(F)c4)nn23)CC1,-4.68%
14,Cn1c(=O)c2c(nc(NCC3CCCC(CN)C3)n2Cc2ccc(Cl)cc2Cl)n(C)c1=O (stereo not drawn),4.91%
15,COc1ccc(C)cc1-n1c(SCC(=O)NCC2CCCO2)nc2c([nH]c3ccccc32)c1=O (stereo not drawn),-1.41%
16,O=C(NCc1ccc2c(c1)OCO2)c1cc(COc2c(F)cccc2F)on1,2.86%
17,CCc1c(C(=O)NCc2ccc3c(c2)OCO3)[nH]c(C)c1C(C)=O,1.22%
18,COc1cccc(-c2cc(C(=O)N/N=C/c3ccco3)c3ccccc3n2)c1,12.7%
19,N#Cc1c(-c2cccs2)cc(-c2ccccn2)nc1N,42%
20,CC(=O)Nc1ccc(S(=O)(=O)N2CCN=C2SCc2ccc(C)cc2)cc1,9.48%
21,CSc1ccccc1NC(=O)c1c(Br)cnn1C,22.9%
22,CCN1C(=O)NC(=O)/C(=C\c2cn(CC(=O)N3CCCCC3C)c3ccccc23)C1=O (stereo not drawn),3.41%
23,O=C(C1CC(c2ccc(F)cc2)=NO1)N1CCCCC1 (stereo not drawn),-10.7%
24,COc1cc(-n2c(C)nc3cc(C(=O)NCC4CCCO4)ccc32)cc(OC)c1OC (stereo not drawn),-7%
25,CCn1cc(C(=O)NC2CCCc3c2cnn3-c2cccc(C)c2C)cn1 (stereo not drawn),-3.59%
